Test results: PubChem BioAssay AID493208 (National Center for Advancing Translational Sciences (NCATS), 2011)
In all, about 44,000 compounds went through this assay and about 340 (0.77%) were called active. Not shown: some 5% with an inconclusive outcome. Calls follow the shape of the dose curve; as a rule, active = well fitted inhibition curve with a large enough effect; inconclusive = small, poorly fitted or top-dose-only effect; inactive = flat fitted curve, though single readings scatter. The list shows a part of the results.

Assay: Acumen qHTS Assay for Inhibitors of the mTORC1 Signaling Pathway in MEF (Tsc2-/-, p53-/-) Cells: Sytravon;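 also: plate controls were DMSO for no effect and rapamycin for full effect; nearly all actives have a fitted effect of over 50% in size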
Conditions: phospho-rpS6 immunofluorescence/PI, 24 h; series mostly up to 38.3 µM; activity change, negative = inhibition: at the top concentration
In short: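 Cell-based qHTS: Tsc2-/- p53-/- MEF, 24 h cpd, 37 °C; fix/perm, anti-phospho-S6 Alexa-488 + PI; Acumen 488 nm scan; pS6/PI ratio, % positive cells; rapamycin 7.5 nM = inhibition ref; PI count = viability.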

Activity change, negative = inhibition, inactive:
COc1ccc(OC)c(NC(=O)Cn2ccn(-c3ccc(OC)c(OC)c3)c(=O)c2=O)c1 7.14%, CCc1ccc(NC(=O)Nc2ccccc2OCc2cc(=O)n3ccccc3n2)cc1 3.08%, CCOC(=O)c1c(NC(=O)CCCOc2ccc(Cl)cc2)sc2c1CCC2 11.8%, COc1ccc(OC)c(-c2noc(N3CCN(c4ccc(C(C)=O)cc4)CC3)n2)c1 -5.25%, COc1ccc(CNC(=O)c2ccc(NC(=O)N3CCSc4ncccc43)cc2)cc1OC 1.8%, COc1ccc(-c2oc3ncn4nc(COc5ccc(C)cc5)nc4c3c2-c2ccc(OC)cc2)cc1 8.25%, O=C(NCCc1csc2nc(-c3ccccc3F)nn12)c1ccccc1C(F)(F)F 6.56%, COc1cccc(CN(C(=O)c2ccc(C(C)(C)C)cc2)C2CCS(=O)(=O)C2)c1 (stereo unspecified) 2.78%, CCOC(=O)Cn1c(=O)oc2cc(S(=O)(=O)N3CCN(c4ccccc4OC)CC3)ccc21 -9.49%, CCCOc1ccc(C(=O)Nc2ccc3nn(-c4ccc(OC)c(Cl)c4)nc3c2)cc1 -0.0888%, Cc1ccccc1NC(=O)c1c(C)oc2ccc(O)c(CN3CCC(C)CC3)c12 -0.817%, CCOc1ccc(-c2nnc(SCC(=O)Nc3cc(F)ccc3F)o2)cc1 -7.42%, COc1cccc2c1Oc1nc(-c3ccccc3)nc(SCC(=O)Nc3ccccc3)c1C2 -0.357%, COc1ccc(NC(=O)c2cnn(-c3ccc(F)cc3F)c2C2CCN(C(=O)OC(C)(C)C)CC2)cc1Cl -3.93%, COc1ccc(CCNC(=O)c2ccc3nc(Cc4ccccc4)oc3c2)cc1OC 0.983%, Nc1nonc1-c1nc2ccccc2n1Cc1c(Cl)cccc1Cl 2.34%, COc1ccc(N(CC(=O)NCCc2ccccc2)S(=O)(=O)c2ccc(OC)c(OC)c2)cc1 5.94%, Cc1ccc(NC(=O)/C(C#N)=C/c2cc(C)n(-c3ccc(Br)cc3)c2C)cc1C 3.24%, CCOc1ccccc1NC(=O)n1ncc2cc(Cl)ccc21 0.626%, Cc1ccc(CCNC(=O)c2ccc(CS(=O)(=O)c3ccc(Cl)cc3)o2)cc1 0.123%, COCCNC(=O)CCCN1C(=O)CCn2nc(-c3cccn3C)cc21 -3.12%, COc1ccc(CCn2c(=O)[nH]c3cc(C(=O)N4CCN(c5ccccc5)CC4)ccc3c2=O)cc1OC 6.23%, Cc1cc(O)c(C(c2ccc(Cl)cc2)N2CCN(c3ccccc3)CC2)c(=O)n1Cc1ccco1 (stereo unspecified) -22.4%, CCN1C(=O)C2(c3ccccc31)c1c(oc3ccc(C)cc3c1=O)C(=O)N2CCCOC(C)C (stereo unspecified) 3.82%, CC1=C(c2ccc(C)cc2)S(=O)(=O)N(Cc2ccc(C(=O)Nc3ccccc3C)cc2)C1=O -2.9%, COc1ccc(NC(=O)Cn2c(=O)oc3cc(S(=O)(=O)N4CCCCC4C)ccc32)cc1 (stereo unspecified) -10.8%, Cc1oc(-c2ccc(C(=O)NC(C)c3ccccc3)cc2)nc1CS(=O)(=O)c1ccccc1 (stereo unspecified) 0%, O=C(c1ccccc1F)N1CCC(c2nc3c(nnn3Cc3cccc(F)c3)c(=O)[nH]2)CC1 1.18%, COC(=O)c1ccccc1NC(=O)CCCN1C(=O)C(c2ccccc2)Oc2cccnc21 (stereo unspecified) 0.687%, CC(=O)Nc1ccc(NS(=O)(=O)c2cc(Br)cc3c2N(C(=O)C2CC2)CC3)cc1 -11%, COc1cc(OC)c(NC(=O)c2cc(C(C)=O)n3ccccc23)cc1Cl 8.93%, COc1ccc(OCC(=O)N(Cc2cccc(OC)c2)C2CCS(=O)(=O)C2)cc1 (stereo unspecified) -9.03%, Cc1ccc(Nc2ncnc3c2cnn3-c2ccc(C)cc2)cc1 -0.805%, COc1ccc(C)cc1NS(=O)(=O)c1c(C)nc2sc(C)cn2c1=O -6.59%, CCOc1ccccc1NC(=O)CSc1ccc2nnc(CCNS(=O)(=O)c3ccccc3)n2n1 -3.73%, Brc1ccc(-c2noc(-c3ccccc3)n2)o1 -9.89%, COCCNC(=O)CCCn1c(=O)[nH]c2ccsc2c1=O -5.04%, Cc1ccc(Cl)cc1N(C)C(=O)c1noc2c1CCCCC2 4.64%, COc1ccc(NC(=O)c2sc3nc(C)c(C(=O)Nc4ccc(C)cc4C)c(-c4ccccc4Cl)c3c2N)cc1 1.9%, Cc1nn(Cc2noc(C(=O)NCc3cccc(F)c3)n2)c(C)c1Br 3.2%, COc1ccc(-n2cc(C(=O)N(C)c3cc(C)ccc3OC)c3ccccc3c2=O)cc1 -4.68%, CSCCC(NS(=O)(=O)c1ccc2c(c1)oc(=O)n2C)C(=O)NCc1ccc(F)cc1 (stereo unspecified) -0.402%, COc1ccccc1NC(=O)C1=C(C)Nc2nc(SCC(=O)c3ccc(C)cc3)nn2C1c1ccccc1C (stereo unspecified) -0.602%, CCOc1ccc(NS(=O)(=O)c2ccc3[nH]cc(C(=O)NCCOC)c(=O)c3c2)cc1 -4.89%, CN(C)CCNC(=O)CCCn1c(=O)c2cccn2c2ccccc21 4.18%, CC1=C(C(=O)Nc2cccnc2)C(c2ccccc2)n2nc(SCc3ccccc3)nc2N1 (stereo unspecified) -0.593%, Cc1ccc(C)c(NC(=O)CN2C(=O)C3(SCC(=O)N3c3ccc(C)c(C)c3)c3ccccc32)c1 (stereo unspecified) -1.29%, O=C(Cn1nc(-c2ccccc2)c2cnc3ccccc3c21)Nc1ccccc1 -1.1%, CCC(=O)N1CCc2cc(CNS(=O)(=O)c3c(C)cc(C)cc3C)ccc21 0%, Cc1ccc(Cn2nnc3sc4c(c3c2=O)CCC(C)C4)cc1 (stereo unspecified) -0.0882%, CC1CCc2nc3ncn(Cc4ccc(Cl)cc4)c(=O)c3cc2C1 (stereo unspecified) -0.178%, Cc1ccc2nc(-c3ccc(Cl)c(NC(=O)c4ccc5c(c4)OCCO5)c3)oc2c1 -0.557%, Cc1nnc(NCc2ccc(Cl)cc2)c2c1nnn2Cc1ccc(F)cc1 -1.95%, CCCCOc1ccc(C(=O)Nc2ccc(S(=O)(=O)Nc3nc(C)cc(C)n3)cc2)cc1 14.1%, COC(=O)c1ccccc1NC(=O)c1cc(-c2ccc(Cl)cc2)on1 7.02%, Cc1nc2ccccc2n1CCc1nc2c3ccccc3nc(SCC(=O)Nc3cccc(C(F)(F)F)c3)n2n1 -2.21%, CCc1ccc2ncc(S(=O)(=O)c3ccc(Cl)cc3)c(N3CCN(CC)CC3)c2c1 -5.11%, Cc1cc(C)nc(NS(=O)(=O)c2ccc(NC(=O)c3ccccc3O)cc2)n1 0.532%, CCCCOc1ccc(C(=O)N2CC(=O)Nc3ccc(Br)cc3C2c2ccc(F)cc2)cc1 (stereo unspecified) -28.2%, COc1ccc(Br)cc1Cn1nnc(C(=O)Nc2ccc(C)cc2C)c1N -18.8%, COc1ccc2c(Sc3ccccc3)c(C(=O)NCC(C)c3ccccc3)[nH]c2c1 (stereo unspecified) -0.126%
